About 14,000 (4.5%) of roughly 310,000 compounds showed an effect of 50% or more. Effects have a minus sign here. The list shows a part of the results.
target: human ether-à-go-go-related gene (hERG) potassium channel (human, UniProt Q12809); experiment: primary screen, population patch clamp on CHO cells stably expressing hERG
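Further: peak tail current of the secondary pulse compared with the same well before compound.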

human ether-à-go-go-related gene (hERG) potassium channel, sequence (Q12809 whole entry, looked up): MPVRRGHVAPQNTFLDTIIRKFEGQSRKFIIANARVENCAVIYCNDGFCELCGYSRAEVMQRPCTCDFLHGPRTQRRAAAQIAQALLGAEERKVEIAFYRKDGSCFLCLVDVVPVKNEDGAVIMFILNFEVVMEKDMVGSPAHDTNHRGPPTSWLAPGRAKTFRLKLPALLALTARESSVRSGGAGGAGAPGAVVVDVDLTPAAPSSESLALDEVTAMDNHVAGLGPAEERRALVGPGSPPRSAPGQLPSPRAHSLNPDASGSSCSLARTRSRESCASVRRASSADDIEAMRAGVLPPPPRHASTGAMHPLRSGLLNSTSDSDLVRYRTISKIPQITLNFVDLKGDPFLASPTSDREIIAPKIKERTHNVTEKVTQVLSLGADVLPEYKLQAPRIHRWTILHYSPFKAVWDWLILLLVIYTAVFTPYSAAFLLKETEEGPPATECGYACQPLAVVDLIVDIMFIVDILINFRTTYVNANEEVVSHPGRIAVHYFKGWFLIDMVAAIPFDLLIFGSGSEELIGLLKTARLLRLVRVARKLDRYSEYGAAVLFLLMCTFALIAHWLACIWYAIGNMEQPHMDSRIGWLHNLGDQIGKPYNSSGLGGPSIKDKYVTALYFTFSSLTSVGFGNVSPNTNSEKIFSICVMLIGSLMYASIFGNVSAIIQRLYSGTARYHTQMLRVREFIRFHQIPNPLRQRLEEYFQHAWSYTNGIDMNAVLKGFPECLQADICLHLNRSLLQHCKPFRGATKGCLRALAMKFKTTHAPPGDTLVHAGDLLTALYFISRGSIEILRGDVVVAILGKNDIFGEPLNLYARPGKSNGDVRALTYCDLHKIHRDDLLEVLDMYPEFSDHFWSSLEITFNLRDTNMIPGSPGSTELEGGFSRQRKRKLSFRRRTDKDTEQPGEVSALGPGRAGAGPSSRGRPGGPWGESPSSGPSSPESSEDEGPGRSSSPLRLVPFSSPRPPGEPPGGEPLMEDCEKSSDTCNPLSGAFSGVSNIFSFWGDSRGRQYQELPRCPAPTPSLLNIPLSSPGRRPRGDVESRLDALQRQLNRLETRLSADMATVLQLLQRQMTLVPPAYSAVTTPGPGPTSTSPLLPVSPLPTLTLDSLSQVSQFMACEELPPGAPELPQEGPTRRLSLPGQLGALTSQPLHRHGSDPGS

| SMILES | hERG current change (%, negative = inhibition) at 10uM [%] |
| --- | --- |
| CCSc1nc2c(cnn2-c2ccccc2)c(=O)n1N | 5.67 |
| Cc1cccc(NC(=O)N2CCCc3ccccc32)c1C | -11.9 |
| Oc1ccc2ccccc2c1N=Nc1ccc(F)cc1 | 1.05 |
| CS(=O)(=O)N1CCN(c2ncccn2)CC1 | 13 |
| CCOC(=O)c1c(NC(=O)c2ccc(Br)o2)sc(C)c1CC | -2.7 |
| Cc1nc2ccc(Cl)cc2c(=O)n1-c1ccc([N+](=O)[O-])cc1 | -3 |
| O=C(Nc1ccccc1N1CCCCC1)c1ccc(-c2ccc(Cl)cc2)o1 | -10 |
| Cc1nc(C)c(CCNC(=O)c2ccccc2Br)s1 | -4.11 |
| O=C(O)CCCNC(=O)c1nn(Cc2ccccc2)c(=O)c2ccccc12 | 11.1 |
| COC(=O)c1sc(N)c(C(=O)OC)c1COC(=O)C1CC(=O)N(Cc2ccco2)C1 (stereo not shown) | -13.6 |
| O=c1cc(-c2ccccc2)oc2ccc(O)cc12 | -9.74 |
| CCN1CCN(S(=O)(=O)c2ccc(Cl)c(C(=O)N(C)Cc3cccc(OC)c3)c2)CC1 | -11.2 |
| CN(C)c1ccc(Nc2c3c4c(cccc4n(C)c2=O)C(=O)c2ccccc2-3)cc1 | 12.7 |
| Cc1cccc(NC(=O)C2(C)CC3c4ccccc4C2c2ccccc23)c1C (stereo not shown) | -10.1 |
| CCC(=O)N/N=C(\C)CC(=O)Nc1ccccc1-c1ccccc1 | 4.21 |
| CCOC(=O)CN1C(=O)N[C@@H](CCc2ccccc2)C(C(C)=O)=C1C | -14.6 |
| CC(C)CC(OC(=O)c1ccco1)C(=O)NCC1CCCO1 (stereo not shown) | 7.97 |
| CCN(CC)CCCN=Cc1c(-c2ccccc2)[nH]n(-c2nc3ccccc3s2)c1=O | -78.2 |
| O=S1(=O)N=C(N2CCN(Cc3ccc4c(c3)OCO4)CC2)c2ccccc21 | -31 |
| CSc1ccc(C(=O)C2CCCN(C(=O)CCn3cncn3)C2)cc1 (stereo not shown) | -14.9 |
| O=c1c2cc([N+](=O)[O-])ccc2nc(CN2CCN(c3ccccn3)CC2)n1-c1ccccc1F | -28.3 |
| O=S(=O)(c1cccc(NC(=S)Nc2ccc(Br)cc2Cl)c1)N1CCOCC1 | 0.48 |
| CC(=O)c1coc2c1cc(O)c1ccccc12 | 20.9 |
| CCOc1ccc(CCNC(=O)C2CCCN(C(=O)N(C)C)C2)cc1OCC (stereo not shown) | -1.68 |
| COc1ccc(C2/C(=C(/O)c3ccc(OC(C)C)cc3)C(=O)C(=O)N2CCCN2CCOCC2)cc1 (stereo not shown) | 3.64 |
